Experimental data reported in the supplement of paper PMC4967469.
Lines with a small IC50 respond at low doses; where the fit passes the top or lowest dose, that dose stands as a limit. AUC sums up the same curve from the lowest dose to the 256-fold higher top dose; it is 1 without any effect and falls as sensitivity rises. For some assays here: An inferred top dose was derived from the fitted curves, not read from the paper.

Tests used:
Test in all cases: Viability of human cancer cell lines after 72 h of drug (GDSC screen)
PF-4708671 = compound: CCc1cncnc1N1CCN(Cc2nc3ccc(C(F)(F)F)cc3[nH]2)CC1 [PF-4708671]; conditions: top dose 10 µM; top dose inferred
Description: (§1)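 Human cancer cell lines in 384-well plates, medium with 10% serum, drug for 72 h over a 256-fold dose range (nine 2-fold or five 4-fold steps up to the top dose). Adherent lines were fixed and stained with the nucleic acid dye Syto60, suspension lines read with resazurin; signal relative to control wells, capped at 0 and 100%. One two-parameter sigmoid per drug and line, fitted in a mixed model over all curves with the slope shared within a line.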

AV-951 = compound: COc1cc2nccc(Oc3ccc(NC(=O)Nc4cc(C)on4)c(Cl)c3)c2cc1OC [AV-951]; conditions: top dose 0.128 µM; top dose inferred
Description: as §1

Trametinib = compound: CC(=O)Nc1cccc(-n2c(=O)n(C3CC3)c(=O)c3c(Nc4ccc(I)cc4F)n(C)c(=O)c(C)c32)c1 [Trametinib]; conditions: top dose 1 µM
Description: as §1

I-BET-762 = compound: CCNC(=O)C[C@@H]1N=C(c2ccc(Cl)cc2)c2cc(OC)ccc2-n2c(C)nnc21 [I-BET-762]; conditions: top dose 20 µM; top dose inferred
Description: as §1

KIN001-244 = compound: O=C(NC(COc1ccc2[nH]c(=O)[nH]c2c1)c1ccccc1)c1cccn(Cc2ccc(F)c(F)c2)c1=O [KIN001-244]; conditions: top dose 20 µM; top dose inferred
Description: as §1

MS-275 = compound: Nc1ccccc1NC(=O)c1ccc(CNC(=O)OCc2cccnc2)cc1 [MS-275]; conditions: top dose 5 µM; top dose inferred
Description: as §1

HG-6-64-1 = compound: CCN1CCN(Cc2ccc(NC(=O)c3ccc(C)c(/C=C/c4cnc5[nH]ccc5c4OC)c3)cc2C(F)(F)F)CC1 [HG-6-64-1]; conditions: top dose 5.12 µM; top dose inferred
Description: as §1

| Cell Line | AUC (PF-4708671) | IC50 (PF-4708671) | AUC (AV-951) | IC50 (AV-951) | AUC (Trametinib) | IC50 (Trametinib) | AUC (I-BET-762) | IC50 (I-BET-762) | AUC (KIN001-244) | IC50 (KIN001-244) | AUC (MS-275) | IC50 (MS-275) | AUC (HG-6-64-1) | IC50 (HG-6-64-1) |
| --- | --- | --- | --- | --- | --- | --- | --- | --- | --- | --- | --- | --- | --- | --- |
| MHH-PREB-1 (B-cell leukaemia, suspension) | 0.934 | > 10 µM | 0.988 | > 0.128 µM | 0.94 | > 1 µM | 0.657 | 3.24 µM | 0.439 | 0.867 µM | 0.626 | 0.667 µM | 0.715 | 1.2 µM |
| MLMA (hairy cell leukaemia, semi-adherent) | 0.953 | > 10 µM | 0.973 | > 0.128 µM | 0.916 | > 1 µM | 0.475 | 1.07 µM | 0.626 | 2.78 µM | 0.761 | 1.79 µM | 0.622 | 0.696 µM |
| MN-60 (B-cell leukaemia, suspension) | 0.988 | > 10 µM | 0.972 | > 0.128 µM | 0.987 | > 1 µM | 0.558 | 1.82 µM | 0.909 | > 20 µM | 0.872 | > 5 µM | 0.711 | 1.29 µM |
| MOLT-4 (lymphoblastic leukaemia, suspension) | 0.982 | > 10 µM | 0.985 | > 0.128 µM | 0.943 | > 1 µM | 0.887 | 15.1 µM | 0.837 | 9.98 µM | 0.606 | 0.577 µM | 0.736 | 1.28 µM |
| MONO-MAC-6 (acute myeloid leukaemia, suspension) | 0.909 | > 10 µM | 0.979 | > 0.128 µM | 0.834 | 0.708 µM | 0.854 | 17.2 µM | 0.755 | 7.15 µM | 0.522 | 0.36 µM | 0.335 | 0.108 µM |
| MPP-89 (mesothelioma, adherent) | 0.979 | > 10 µM | 0.977 | > 0.128 µM | 0.773 | 0.511 µM | 0.703 | 5.59 µM | 0.801 | 13.4 µM | 0.74 | 1.91 µM | 0.588 | 0.598 µM |
| MRK-nu-1 (breast, suspension) | 0.965 | > 10 µM | 0.99 | > 0.128 µM | 0.989 | > 1 µM | 0.965 | > 20 µM | 0.775 | 7.27 µM | 0.57 | 0.477 µM | 0.882 | 4.66 µM |
| MS-1 (small cell lung carcinoma, suspension) | 0.978 | > 10 µM | 0.99 | > 0.128 µM | 0.991 | > 1 µM | 0.758 | 6.25 µM | 0.935 | > 20 µM | 0.98 | > 5 µM | 0.912 | > 5.12 µM |
| MZ1-PC (pancreas, adherent) | 0.965 | > 10 µM | 0.98 | > 0.128 µM | 0.129 | < 0.00391 µM | 0.715 | 5.94 µM | 0.882 | > 20 µM | 0.77 | 2.37 µM | 0.588 | 0.592 µM |
| MZ2-MEL (melanoma, adherent) | 0.983 | > 10 µM | 0.973 | > 0.128 µM | 0.506 | 0.065 µM | 0.983 | > 20 µM | 0.756 | 7.91 µM | 0.894 | > 5 µM | 0.58 | 0.552 µM |
| MZ7-mel (melanoma, adherent) | 0.974 | > 10 µM | 0.984 | > 0.128 µM | 0.154 | 0.00508 µM | 0.683 | 4.14 µM | 0.853 | 16.4 µM | 0.602 | 0.601 µM | 0.756 | 1.81 µM |
| Mo-T (hairy cell leukaemia, suspension) | 0.978 | > 10 µM | 0.966 | > 0.128 µM | 0.979 | > 1 µM | 0.879 | > 20 µM | 0.877 | > 20 µM | 0.988 | > 5 µM | 0.983 | > 5.12 µM |
| NAMALWA (Burkitt lymphoma, suspension) | 0.969 | > 10 µM | 0.985 | > 0.128 µM | 0.991 | > 1 µM | 0.647 | 2.97 µM | 0.903 | 19 µM | 0.525 | 0.361 µM | 0.791 | 1.91 µM |
| NB1 (neuroblastoma, semi-adherent) | 0.91 | > 10 µM | 0.981 | > 0.128 µM | 0.77 | 0.42 µM | 0.928 | > 20 µM | 0.846 | 16.8 µM | 0.734 | 1.58 µM | 0.94 | > 5.12 µM |
| NB5 (neuroblastoma, adherent) | 0.923 | > 10 µM | 0.984 | > 0.128 µM | 0.343 | 0.0227 µM | 0.885 | > 20 µM | 0.79 | 9.02 µM | 0.762 | 1.81 µM | 0.915 | > 5.12 µM |
| NB7 (neuroblastoma, adherent) | 0.921 | > 10 µM | 0.98 | > 0.128 µM | 0.964 | > 1 µM | 0.922 | > 20 µM | 0.902 | > 20 µM | 0.842 | 3.75 µM | 0.734 | 1.54 µM |
| NB10 (neuroblastoma, adherent) | 0.958 | > 10 µM | 0.988 | > 0.128 µM | 0.533 | 0.0769 µM | 0.81 | 10.2 µM | 0.876 | 19.1 µM | 0.732 | 1.4 µM | 0.954 | > 5.12 µM |
| NB12 (neuroblastoma, adherent) | 0.98 | > 10 µM | 0.965 | > 0.128 µM | 0.529 | 0.0772 µM | 0.683 | 4.88 µM | 0.938 | > 20 µM | 0.514 | 0.345 µM | 0.61 | 0.711 µM |
| NB13 (neuroblastoma, adherent) | 0.969 | > 10 µM | 0.99 | > 0.128 µM | 0.984 | > 1 µM | 0.807 | 8.89 µM | 0.726 | 5.01 µM | 0.622 | 0.65 µM | 0.905 | > 5.12 µM |
